We go through 85 molecules from ChEMBL document CHEMBL4888484, “Replenishing the malaria drug discovery pipeline: Screening and hit evaluation of the MMV Hit Generation Library 1 (HGL1) against asexual blood stage Plasmodium falciparum ,using a nano luciferase reporter read-out” (2022).

The whole screen tested about 150,000 compounds, of which about 540 (0.36%) showed an effect of 50% or more. The list shows a part of the results.

In this experiment the test system is Plasmodium falciparum. As to the kind of experiment: Primary screen in NF54 nanoGlo assay, in single point, at 2uM, 72h; a lower Z score goes with more inhibition. The settings on record: timepoint 72 hour. Type of experiment: functional, Erythrocyte.
Take `C[C@H](Oc1ccccc1)C(=O)Nc1cnoc1`: the “% Inhibition” value was -11% and the Z score came out at 1.76.
With `Cc1ccc(OCC(=O)NCc2ccc3c(c2)OCO3)cn1`, the “% Inhibition” value is given as -2% and the Z score was 0.14.
For `COCC(=O)N1CCC(CCOCc2ccccc2F)CC1`, in that order: -5% and 0.97.
For `Cn1ncn(CC(=O)Nc2cccc(Cl)c2)c1=O` the same measures were -4% and 0.66.
For `CC(C)(C)c1noc(-c2cccc(=O)n2CC(=O)Nc2ccc(F)cc2)n1`, in that order: -12% and 1.16.
As to `CCN1CCN(c2nc3c(s2)CN(C(=O)COC)CC3)CC1`, the “% Inhibition” value was -9% and the Z score is given as 1.2.
On to `N#CCCN(CC1CC1)C(=O)[C@H](O)c1ccc(Br)cc1`, for which the “% Inhibition” value is reported as 1% and the Z score is -0.24.
`COc1ccc(OC)c2c(/C=C/c3c[nH]c4ccccc34)ccnc12`: the “% Inhibition” value is listed as -8% and the Z score is given as 0.9.
For `O=C(Nc1ccc2c(c1)CNC2)[C@H]1C[C@@H]1c1c(F)cccc1Cl`, in that order: -1% and 0.07.
For `COc1ccc(-c2noc([C@H](C)O)c2C(=O)NC2CCOCC2)cc1OC` the same measures were 2% and -0.25.
For `Cc1noc(-c2cccnc2NCCCC(C)(C)C2OCCO2)n1`, in that order: -9% and 1.34.
`COc1ccc(C(=O)N2CCN(c3ncnc4c3CCC4)CC2)cc1`: the “% Inhibition” value is listed as -3% and the Z score is 0.44.
For `Cc1cc(=O)n(CC(=O)Nc2ccc(F)cc2)c(N2CCOCC2)n1`, in that order: -22% and 2.38.
Take `CNC(=O)c1nc(-c2ccccc2)n2c1CCN(C(=O)c1cccs1)CC2`: the “% Inhibition” value was -1% and the Z score worked out at 0.12.
For `CCc1nc(C)sc1C(=O)NCCCN(C)c1ccccc1` the same measures were -16% and 2.71.
For `O=C(NCCCn1ccccc1=O)c1cccc2c1NCCC2` the same measures were -15% and 2.84.
Take `C[C@H]1Cc2ccccc2N1C(=O)c1ccc(N2CCC(Cc3ccccc3)CC2)nn1`: the “% Inhibition” value is listed as -18% and the Z score amounted to 3.17.
For `O=C(Cc1cccnc1)N1CC[C@H](Oc2ncccn2)C1` the same measures were -13% and 2.48.
For `Cc1ccc(NC(=O)c2ccc3[nH]c4c(c3c2)CN(C(=O)C2CCC2)CC4)cc1`, in that order: 12% and -1.77.
For `N#Cc1ccccc1Cn1cnc2c1c(=O)n(Cc1ccccc1)c(=O)n2-c1ccc(Cl)cc1` the same measures were 6% and -0.98.
In the case of `COCCNC(=O)C1CC(c2cccc(C)c2)CN(Cc2cccc(F)c2)C1` (stereo not given), the “% Inhibition” value is reported as -4% and the Z score was determined as 0.71.
As to `c1ccc2c(CCN3CCOCC34CC4)nsc2c1`, the “% Inhibition” value was -4% and the Z score is listed as 0.45.
For `O=S1(=O)CC(NCc2ccccc2)C(NCc2ccccc2)C1` (stereo not given), in that order: 0% and 0.02.
For `CN(C)c1cnn(CCc2ccc(F)cc2)c(=O)c1`, in that order: -13% and 1.34.
For `Cc1nc(N(C)Cc2cnn(C)c2)ccc1C#N` the same measures were -14% and 1.88.
`CC[C@H](NC(=O)Cn1nc(C)cc1N)c1ncccc1C`: the “% Inhibition” value is reported as -6% and the Z score stood at 1.06.
For `Cc1cnc(C(=O)N2CCOc3ccc(CN4CCCCCC4)cc3C2)cn1`, in that order: -15% and 1.57.
For `NC(=O)N1CCC[C@H]1C(=O)NCC1(c2cccc(Cl)c2F)CCCC1` the same measures were 0% and 0.04.
For `COCCN1CCCCC[C@H](O)c2cc(C(=O)N3CCN(c4ccccn4)CC3)ccc21` the same measures were 2% and -0.24.
Consider `CCC(=O)N1CCC[C@](c2nnnn2C2CCCC2)(N(CC)Cc2ccccc2)C1`, for which the “% Inhibition” value was -4% and the Z score came out at 0.59.
Take `CC(C)c1noc(CN(C)C[C@@H]2CC=CCC2)n1`: the “% Inhibition” value is -2% and the Z score is 0.42.
On to `Cn1ncnc1NC(=O)c1ccc(-c2cccc(Br)c2)n1C`, for which the “% Inhibition” value is given as -2% and the Z score amounted to 0.47.
For `O=C(O)C1CCCCC1C(=O)N(Cc1ccccc1)Cc1ccccc1` (stereo not given), in that order: -12% and 2.28.
With `Cc1cc(CN(C)CCc2nccn2C)ccn1`, the “% Inhibition” value was 6% and the Z score is -0.63.
On to `COc1ccc(CN2C(=O)[C@H]3CCCC3=Nc3cc(C)c(C)cc32)cc1F`, for which the “% Inhibition” value is on record as 2% and the Z score is -0.28.
For `COC[C@H]1CCCN1C(=O)c1nc(C)n2c1CCCC2` the same measures were -8% and 1.09.
For `CCN(C(=O)CCc1nccs1)c1cc(C)cc(C)c1`, in that order: 3% and -0.53.
As for `Cc1cc([C@@H](O)CCNC(=O)C(=O)NCc2ccc(F)cc2)c(C)o1`, the “% Inhibition” value is given as -14% and the Z score is reported as 1.83.
For `CN(CCNC(=O)[C@@H]1C[C@H](Oc2ccccc2)CN1C1CCOCC1)C1CCCCC1` the same measures were -16% and 2.14.
For `Nc1ccnc(N2CCC(Oc3ccc4c(c3)CCC4)(C(=O)O)CC2)n1` the same measures were -18% and 1.69.
For `O=S(=O)(c1cc(-c2nc(-c3ccc(Cl)cc3)no2)cs1)N1CCc2ccccc2C1` the same measures were -7% and 0.83.
For the molecule `O=C(CC1CCCC1)NCCCc1cnc2ncnn2c1`, the “% Inhibition” value was 7% and the Z score is on record as -1.28.
Turning to `O=C(NCCc1ccc[nH]1)c1cc(C(F)F)ncn1`, the “% Inhibition” value is reported as -3% and the Z score turned out to be 0.53.
For `O=c1c2c([nH]c3c(-c4cccc5ccccc45)c(Cc4ccccc4)nn13)CCC2`, in that order: -6% and 1.04.
For `Cc1noc([C@H]2CCN(c3nnc(C(F)(F)F)s3)C2)n1` the same measures were 0% and -0.01.
For `COc1ccc(C(=O)N2CCN(c3nc(CN4CCN(c5ccc(C)cc5)CC4)cc(=O)[nH]3)CC2)cc1` the same measures were -6% and 1.17.
For `O=C(COc1cccc(F)c1)N1CCN(C(=O)c2c[nH]c(=O)[nH]2)CC1`, the “% Inhibition” value is given as -2% and the Z score was 0.21.
For `CCC1CCC(C(=O)NCc2snc(OC)c2Br)O1` (stereo not given), in that order: -4% and 0.6.
For `CCOC(=O)c1csc(CN2CCC(C(C)(C)C)C(O)C2)n1` (stereo not given) the same measures were -2% and 0.27.
For `CC(C)(C)NC(=O)N(Cc1ccc(F)cc1)Cc1ccccc1OS(=O)(=O)c1ccc(F)cc1`, in that order: -13% and 1.23.
For the molecule `CCc1nn(C)c(Cl)c1CN1CCC2(CC1)[C@H](O)C[C@@H]2O`, the “% Inhibition” value is on record as -3% and the Z score worked out at 0.49.
As for `Nc1ccnc(N2CCN(Cc3cc(C4CC4)n[nH]3)C[C@H](O)C2)n1`, the “% Inhibition” value is on record as -3% and the Z score came out at 0.69.
For `Cn1cc(CCC(=O)N2CCC[C@H](C(=O)c3ccc(C(C)(C)C)cc3)C2)cn1` the same measures were 6% and -0.74.
Turning to `CN1CCC(CN(CCc2ccccc2)C(=O)Cc2cccs2)CC1`, the “% Inhibition” value is recorded as -7% and the Z score is listed as 0.91.
For `Cc1ccc(C)c(N2CCN(C(=O)C3CCC3)[C@@H](C)C2=O)c1` the same measures were -3% and 0.31.
For `CS(=O)(=O)c1ccc(-c2noc(-c3cccc4[nH]ncc34)n2)cc1` the same measures were 0% and -0.07.
For `Cc1ccc(N2C[C@]3(c4ccccc4)C[C@@H](c4ccccc4)ON3[C@H]2c2ccc3c(c2)OCO3)cc1`, in that order: -4% and 0.43.
As to `Cc1cccc(OCC(=O)N2CCC(CN3CCCC3)CC2)c1`, the “% Inhibition” value was -4% and the Z score is 0.73.
For `Cc1ncccc1OC1(C(=O)O)CCN(c2noc(C(C)C)n2)CC1`, in that order: -10% and 2.02.
For `CCc1nc(C(=O)N2CCN(c3ccccc3Cl)CC2)c[nH]1`, in that order: -12% and 2.26.
For `C=CCNC(=O)COc1ccc(Br)cc1` the same measures were 2% and -0.32.
Take `CC1CC(NCCc2cc(F)cc3c2OCOC3)CN1C1CC1` (stereo not given): the “% Inhibition” value is recorded as -5% and the Z score stood at 0.45.
For `Cc1ccc(C)c(S(=O)(=O)Nc2cc(-c3ccsc3)no2)c1`, in that order: -25% and 2.46.
For `Cc1cn2c(n1)CC[C@H](NS(=O)(=O)c1cncc(F)c1)C2`, in that order: -6% and 0.65.
For `Cc1nc(C)c(C(=O)OCC(=O)N(C)CC(=O)Nc2ccc(F)cc2)s1`, in that order: -7% and 1.31.
`O=C(c1ccc(C(F)(F)F)n(Cc2ccc(Cl)cc2)c1=O)N1CCOCC1`: the “% Inhibition” value was determined as 1% and the Z score is on record as -0.18.
For `CC1Nc2ccnn2C(C)C1CCC(=O)NCc1ccc(F)cc1` (stereo not given), the “% Inhibition” value came out at 2% and the Z score is given as -0.24.
For `O=C(OC1CCCCC1)c1nsc(Cl)c1Cl`, in that order: 3% and -0.41.
For `Cc1cccc(N2CCC[C@H](c3nc(C)cs3)C2)n1` the same measures were -13% and 1.48.
For `CN(CCc1nc2ccccc2[nH]1)S(=O)(=O)[C@H]1CCS(=O)(=O)C1`, in that order: -13% and 1.22.
As for `COc1cccc(N2CCN(C(=O)c3c(C)n(CCc4ccccc4OC)c(C)cc3=O)CC2)c1`, the “% Inhibition” value is -2% and the Z score is 0.39.
With `CC[C@H]1CCCCN1S(=O)(=O)c1ccc2c(c1)N(Cc1noc(C)n1)C(=O)CO2`, the “% Inhibition” value is -10% and the Z score is 1.81.
With `CN(Cc1cscn1)C(=O)c1snnc1C(C)(C)C`, the “% Inhibition” value was determined as 6% and the Z score is reported as -0.61.
For `O=C(c1ncccc1O)N1CC[C@@]2(CCCN(C3CCCCC3)C2=O)C1` the same measures were 5% and -0.75.
Consider `O=C(Cn1ncnn1)N1CCC[C@H](c2cccc(C(F)(F)F)c2)C1`, for which the “% Inhibition” value was -12% and the Z score came to 1.63.
For `CNC(=O)c1cc(Br)ccc1Cl`, in that order: 2% and -0.26.
On to `O=C(CNc1cc(S(=O)(=O)N2CCOCC2)ccc1Oc1ccc(F)cc1)N1CCNC1=O`, for which the “% Inhibition” value is listed as -10% and the Z score stood at 1.38.
Consider `c1ccc(CNC(=NC2CC2)NC2CCCC2)cc1`, for which the “% Inhibition” value is -6% and the Z score turned out to be 1.08.
Regarding `CCOCCCNC(=O)[C@H]1CCN(c2cnn(Cc3ccccc3)c(=O)c2)C1`, the “% Inhibition” value is reported as -12% and the Z score came to 1.71.
For `CN1N=C(CC(=O)NCC(C)(C)Cc2cccc(Cl)c2)CC1=O` the same measures were -5% and 0.53.
Regarding `CC[C@H](C)NC(=O)CCN(CCc1ccccc1)c1nc(-c2ccc(F)cc2)nc2ccccc12`, the “% Inhibition” value is listed as -8% and the Z score was 1.36.
For `O=C(c1cscn1)N1CCN(c2ncccn2)CC1`, in that order: -7% and 0.81.
For `OC1(Cc2nc(-c3ccc(Br)o3)no2)CCCC1`, in that order: 4% and -0.69.
Consider `c1ccc(Oc2cccc(CN3CCN(c4ccccc4)CC3)c2)cc1`, for which the “% Inhibition” value is -13% and the Z score is on record as 2.14.
For `COC(=O)c1cc(C2CC2)nc2c1c(=O)n(Cc1cc(C)ccc1C)c(=O)n2-c1ccccc1` the same measures were 5% and -0.59.
